In PubChem BioAssay AID1768 (National Center for Advancing Translational Sciences (NCATS), 2009):
Out of some 270,000 compounds screened, about 620 (0.23%) were called active. This list was built around the results that the source calls inconclusive (neither active nor inactive); the mix of calls is not that of the screen. Calls follow the shape of the dose curve; as a rule, active = well fitted inhibition curve with a large enough effect in the polarisation, with a control signal flat (not every such curve was filed as active); inconclusive = small, poorly fitted or top-dose-only effect, or effect the other way, or a change in a side signal; inactive = no such curve, though single readings can be large or run the other way; the % refers to the polarisation. Potencies beside an inconclusive call are fits to weak or partial responses and may not hold up. A note “side channel” means that the fit belongs to a control or component signal, not to the main read-out.
For FP activity change, negative = inhibition in this document: % of control where 0% means no effect.
Potency is read from the fitted curve at half-maximal effect; tags tell the direction and shape of the fitted curve or compound fluorescence and quenching.

Each molecule was assayed against Menin (Homo sapiens) (UniProt O00255) (assay: qHTS Assay for Inhibitors Targeting the Menin-MLL Interaction in MLL Related Leukemias: Competition With Texas Red Labeled MLL-derived Mutant Peptide). Conditions: fluorescence polarization; FP activity change, negative = inhibition: at 61.6 µM (top of the series).
UniProt O00255, sequence (O00255 whole entry, looked up): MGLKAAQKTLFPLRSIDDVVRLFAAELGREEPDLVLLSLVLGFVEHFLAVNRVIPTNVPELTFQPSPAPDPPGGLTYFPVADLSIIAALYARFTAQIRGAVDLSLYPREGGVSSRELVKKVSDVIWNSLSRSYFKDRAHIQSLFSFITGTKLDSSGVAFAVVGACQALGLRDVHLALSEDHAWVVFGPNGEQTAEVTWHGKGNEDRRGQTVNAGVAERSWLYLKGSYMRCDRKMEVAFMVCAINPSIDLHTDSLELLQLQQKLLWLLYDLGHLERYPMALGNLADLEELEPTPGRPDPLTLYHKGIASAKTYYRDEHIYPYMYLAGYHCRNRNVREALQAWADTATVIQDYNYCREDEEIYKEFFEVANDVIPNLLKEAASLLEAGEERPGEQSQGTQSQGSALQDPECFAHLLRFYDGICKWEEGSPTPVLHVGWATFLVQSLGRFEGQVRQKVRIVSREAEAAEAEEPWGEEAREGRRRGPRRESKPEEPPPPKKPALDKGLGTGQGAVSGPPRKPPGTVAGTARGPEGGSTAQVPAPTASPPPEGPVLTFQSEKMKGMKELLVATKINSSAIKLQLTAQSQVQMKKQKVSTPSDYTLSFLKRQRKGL
With `COc1ccccc1N1CCN(C2CCN(C(=O)c3ccc(F)cc3)CC2)CC1` the “FP activity change, negative = inhibition” value was inactive: 2.25%.
`Cc1[nH]c2ccccc2c1/C=N/Nc1ccccc1[N+](=O)[O-]` was tested, and the Potency was inconclusive: 3.16 µM [quencher, side channel, full curve].
For `O=C1NCCN(Cc2cccc(Oc3ccccc3)c2)C1CC(=O)N1CCCCO1` (centres undefined), the Potency was inconclusive: 3.16 µM [fluorescent, side channel, partial curve].
`c1ccc(-c2nnc(-c3ccccn3)nc2NC2CCCCC2)cc1` was tested, and the “FP activity change, negative = inhibition” value was inactive: -0.0602%.
With `Fc1ccc(CSc2nnc(-c3cc4c(s3)-c3ccccc3CC4)o2)cc1` the Potency was inconclusive: 10 µM [inhibitor, partial curve].
With `Cc1nonc1OCCCNc1ccc([N+](=O)[O-])cc1Cl` the Potency was inconclusive: 28.2 µM [quencher, side channel, single point].
With `Cc1cccc(/C=N/NC(=O)c2ccc(NC(=O)c3ccc(F)cc3)cc2)n1` the Potency was inconclusive: 28.2 µM [quencher, side channel, partial curve].
In the case of `COc1ccccc1C(=O)Nc1ccc(C(=O)/C=C/c2cccs2)cc1`, the “FP activity change, negative = inhibition” value is reported as inactive: 25.2%.
In the case of `Cc1cc(/C=C(/C#N)c2nc3ccccc3[nH]2)c(C)n1-c1cc(C(=O)O)cc(C(=O)O)c1`, the Potency is reported as inconclusive: 35.5 µM [quencher, side channel, single point].
For `OC[C@H]1OC(O)[C@@H](O)[C@@H](O)[C@H]1O` (some centres undefined), the “FP activity change, negative = inhibition” value was inactive: -1.38%.
`Cc1cccc(Nc2nc(-c3ccc4c(c3)OCCO4)cs2)c1` was tested, and the Potency was inconclusive: 14.1 µM [quencher, side channel, partial curve].
`O=C(c1cccc(F)c1)N1CCC2(CC1)CCN(c1ccccc1)CC2` was tested, and the Potency was inconclusive: 0.708 µM [inhibitor, full curve].
In the case of `COc1cc(/C=C2\CC(C(C)(C)C)C/C(=C\c3cc(OC)c(OC)c(OC)c3)C2=O)cc(OC)c1OC` (centres undefined), the Potency is reported as active: 7.94 µM.
In the case of `COc1ccc(/C=N\NC(=O)COc2ccccc2Cl)cc1Cn1nc(C)cc1C`, the Potency is reported as inconclusive: 8.91 µM [fluorescent, side channel, partial curve].
In the case of `COc1cccc(N2CCN(c3ncnc4c3[nH]c3ccc(F)cc34)CC2C)c1` (centres undefined), the Potency is reported as inconclusive: 28.2 µM [quencher, side channel, partial curve].
With `O=C(OCC(=O)c1ccc(Cl)s1)c1cnccn1` the Potency was inconclusive: 14.1 µM [quencher, side channel, partial curve].
`COc1ccc(OC)c(-c2csc(NC(=O)Cc3ccc(OC)c(OC)c3)n2)c1` was tested, and the Potency was inconclusive: 22.4 µM [quencher, side channel, single point].
With `CCC(C)[C@H]1CNC(=S)N1CCc1cc(C(F)(F)F)cc(C(F)(F)F)c1` (some centres undefined) the Potency was inconclusive: 14.1 µM [fluorescent, side channel, partial curve].
For `COc1ccccc1CNC(=O)C1CCC(CNS(=O)(=O)c2ccc(NC(C)=O)cc2)CC1` (centres undefined), the Potency was inconclusive: 39.8 µM [fluorescent, side channel, single point].
With `CN(C)C(CNC(=O)C1CCN(C(=O)/C=C/c2ccccc2)CC1)c1ccccc1` (centres undefined) the Potency was inconclusive: 10 µM [inhibitor, partial curve].
With `Cc1c(OCc2ccccc2)c(=O)ccn1Cc1ccccc1` the Potency was inconclusive: 11.2 µM [fluorescent, side channel, partial curve].
In the case of `COc1ccccc1NS(=O)(=O)c1ccc(Cl)c(NC(=O)c2sc3cc(Cl)ccc3c2Cl)c1`, the Potency is reported as inconclusive: 7.08 µM [inhibitor, partial curve].
`CCOC(=O)c1ccccc1NC(=O)COc1cc(=O)n(CC)c2ccccc12` was tested, and the Potency was inconclusive: 10 µM [fluorescent, side channel, partial curve].
For `O=C(c1nn(Cc2ccccc2)c(=O)c2ccccc12)N1CCN(C/C=C/c2ccccc2)CC1`, the Potency was inconclusive: 3.16 µM [fluorescent, side channel, full curve, poor fit].
With `COc1ccc2oc(=N)c(C(=O)Nc3cccc(C)c3C)cc2c1` the Potency was inconclusive: 31.6 µM [inhibitor, partial curve].
For `COCCn1cnc2c1-c1ccc(OC)c(c1)OC/C=C\COc1cccc-2c1`, the “FP activity change, negative = inhibition” value was inactive: -6.74%.
With `Cc1cc(NC(=O)c2cc(-c3ccco3)on2)nn1Cc1ccc(Cl)cc1` the Potency was inconclusive: 31.6 µM [quencher, side channel, single point].
With `CC(NC(=O)/C(C#N)=C/c1ccc([N+](=O)[O-])o1)c1ccccc1` (centres undefined) the Potency was inconclusive: 28.2 µM [fluorescent, side channel, partial curve].
`COc1ccccc1NCCC(=O)OCC(=O)NC1CC1` was tested, and the “FP activity change, negative = inhibition” value was inactive: -3.2%.
`O=C(NC12CC3CC(CC(C3)C1)C2)c1ccccc1O` was tested, and the “FP activity change, negative = inhibition” value was inactive: 18.8%.
In the case of `COc1ccc(CN(C(=O)c2ccc(CN3CCOCC3)o2)C(C(=O)NCC2CCCO2)c2ccc(F)cc2)cc1` (centres undefined), the Potency is reported as inconclusive: 10 µM [inhibitor, partial curve].
For `C=CCN(C(=O)CCC(=O)Nc1cc(C)on1)C(C(=O)NC1CCCC1)c1ccc(OC)cc1OC` (centres undefined), the Potency was inconclusive: 17.8 µM [inhibitor, single point].
`Nc1cc(-c2ccccc2)nn1S(=O)(=O)c1ccc(Br)cc1` was tested, and the Potency was inconclusive: 5.62 µM [quencher, side channel, single point].
In the case of `CO[C@@H]1COC(=O)C/C=C\[C@H](C)[C@H](OC)COC(=O)[C@H]2CCCN2C(=O)C/C=C\[C@H]1C`, the FP activity change, negative = inhibition is reported as inactive: -21.5% [at 11.7 µM].
`O=C1CC(N(CCc2ccccc2)C(=S)Nc2cc(Cl)ccc2Cl)C(=O)N1c1c(Cl)cccc1Cl` (centres undefined) was tested, and the Potency was active: 10 µM.
In the case of `CCc1sc(/C=C(/C#N)C(N)=S)cc1[N+](=O)[O-]`, the Potency is reported as inconclusive: 10 µM [quencher, side channel, partial curve].
In the case of `NS(=O)(=O)c1ccc(NCc2c(F)cccc2Cl)cc1`, the “FP activity change, negative = inhibition” value is reported as inactive: 5.62%.
In the case of `Cc1cccc(OCCN2C(=O)C(=O)c3cc(C)ccc32)c1`, the Potency is reported as inconclusive: 17.8 µM [fluorescent, side channel, partial curve].
With `Cc1cc(=O)oc2cc(OCC3CC(c4ccc(Br)cc4)=NO3)ccc12` (centres undefined) the “FP activity change, negative = inhibition” value was inactive: 9.24%.
With `Nc1cc(-c2ccc(Br)cc2)nn1S(=O)(=O)c1ccccc1` the Potency was inconclusive: 28.2 µM [quencher, side channel, partial curve].
For `CC(C)N(CCNC(=O)c1oc(=O)c2ccccc2c1-c1ccccc1)Cc1ccco1`, the Potency was inconclusive: 10 µM [fluorescent, side channel, partial curve].
`C=CCc1cc(OC)ccc1OCCOCCN1CCc2ccccc2C1` was tested, and the Potency was inconclusive: 7.94 µM [fluorescent, side channel, partial curve].
With `CCN1CSC(=S)N(Cc2ccccc2)C1` the Potency was inconclusive: 31.6 µM [quencher, side channel, single point].
For `CC1=NN(c2ccc(C)cc2C)C(=O)C1C(c1ccccc1)C1C(=O)N(c2ccc(C)cc2C)N=C1C` (centres undefined), the Potency was inconclusive: 39.8 µM [quencher, side channel, single point].
In the case of `COc1ccccc1Oc1coc2c(CN(C)C)c(O)ccc2c1=O`, the “FP activity change, negative = inhibition” value is reported as inactive: -12.9%.
For `Oc1ccc(/C=N/N2CCCCC2)c(O)c1`, the “FP activity change, negative = inhibition” value was inactive: 45.5%.
With `O=C(c1cc2ccccn2n1)N1CCN(c2cccc(C(F)(F)F)c2)CC1` the Potency was inconclusive: 20 µM [fluorescent, side channel, partial curve].
With `Cc1ccc2nc(N(CCCN(C)C)C(=O)c3cc(-c4cccs4)nc4ccccc34)sc2c1` the Potency was inconclusive: 3.55 µM [fluorescent, side channel, full curve, poor fit].
With `COc1ccccc1CCc1nnc(CCC(=O)NCC[C@@H]2C[C@@H]3C=C[C@H]2C3)o1` the Potency was inconclusive: 3.16 µM [fluorescent, side channel, partial curve].
`O=C(NCc1ccccc1)c1c(O)c2ccccc2[nH]c1=O` was tested, and the Potency was inconclusive: 3.16 µM [quencher, side channel, single point].
For `Cc1ccc(-n2[nH]c(C)c(C=Nc3ccc(S(=O)(=O)Nc4nccs4)cc3)c2=O)cc1`, the Potency was inconclusive: 15.8 µM [quencher, side channel, partial curve].
`CCCCNCC#CCOc1cc(C)ccc1C(C)C` was tested, and the Potency was inconclusive: 1.41 µM [fluorescent, side channel, full curve, poor fit].
In the case of `CC(C(=O)N(C)C1CCS(=O)(=O)C1)N1C(=O)/C(=C/c2ccco2)SC1=S` (centres undefined), the Potency is reported as inconclusive: 3.16 µM [fluorescent, side channel, single point].
In the case of `CCOC(=O)c1ccc(NC(=O)Cn2nnc(-c3ccccc3C)n2)cc1`, the Potency is reported as inconclusive: 14.1 µM [quencher, side channel, partial curve].
With `O=C(NNC(=S)Nc1ccccc1C(F)(F)F)c1ccc(Br)o1` the Potency was inconclusive: 17.8 µM [quencher, side channel, partial curve].
For `CN(CCO)S(=O)(=O)c1ccc2c(c1)C(=NO)c1cc(S(=O)(=O)N(C)CCO)ccc1-2`, the Potency was inconclusive: 12.6 µM [quencher, side channel, partial curve].
`CC(C)(C)c1ccc(C(=O)OC/C(O)=C(\C#N)c2nc3ccccc3s2)cc1` was tested, and the Potency was inconclusive: 20 µM [quencher, side channel, single point].
With `CCN(CC)C(=O)Cn1c(=O)n(CCCC(=O)NCc2ccc3c(c2)OCO3)c(=O)c2sccc21` the “FP activity change, negative = inhibition” value was inactive: 16.6%.
For `CN(C)CCn1c(=O)n(Cc2ccccc2)c(=O)c2c3c(sc21)CCCCC3`, the Potency was inconclusive: 14.1 µM [fluorescent, side channel, partial curve].
